Reference: PubChem BioAssay AID1346428 (National Center for Advancing Translational Sciences (NCATS), 2018)
“And” between values parts separate entries of the source, which are not always exact repeats. Equal entries are not always repeated. Hit rate of the full screen: of about 48,000 compounds, about 1,200 (2.5%) were called active. Another 2% or so got no clear call; they are omitted.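 Rule for the calls: active = activation of at least 60% and not above a set upper limit (about 1 call in 100 departs from these limits); inconclusive = activation of 40% to 60%, or above that upper limit; inactive = activation under 40%.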 The list shows a part of the results.

biological target: Probable G-protein coupled receptor 32 (Homo sapiens) (UniProt O75388); test: qHTS for Agonists of Human Resolvin D1 Receptor DRV1; conditions: CHO-K1 GPR32 beta-arrestin PathHunter luminescence, 90 min; at 76.9 µM; hits give high values; zero percent set by DMSO-only wells; note: 0% is about no effect
Chain of UniProt O75388 (O75388 whole entry, looked up): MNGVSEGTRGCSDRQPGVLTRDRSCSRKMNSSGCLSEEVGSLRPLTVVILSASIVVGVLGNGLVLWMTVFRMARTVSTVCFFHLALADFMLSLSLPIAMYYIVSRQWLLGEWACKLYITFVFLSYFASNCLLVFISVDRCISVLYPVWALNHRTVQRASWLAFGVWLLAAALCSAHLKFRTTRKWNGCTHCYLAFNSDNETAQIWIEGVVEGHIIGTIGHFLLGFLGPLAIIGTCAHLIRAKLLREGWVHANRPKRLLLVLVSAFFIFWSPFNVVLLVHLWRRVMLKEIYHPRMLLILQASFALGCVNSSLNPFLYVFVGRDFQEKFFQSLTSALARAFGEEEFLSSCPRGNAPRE
Outline: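 Readings come from a cell-based beta-arrestin complementation format: CHO-K1 GPR32 stable cells (2,500/well) treated 90 min with compounds, then beta-Gal substrate added for 1 h before chemiluminescence imaging.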

activation, inactive:
Cc1ccc(CNC(=O)CN2C(=O)CCn3nc(-c4ccccc4)cc32)cc1 -14.2%, Clc1ccc2c(c1)C(N1CCNCC1)=Nc1ccccc1O2 -20.2% and -6.69%, Cc1ccc(-n2ncc(C(=O)NCc3cccs3)c2C2CCN(C(=O)OC(C)(C)C)CC2)cc1 -28.3%, CC(C)N=C(N)/N=C(\N)Nc1ccc(Cl)cc1 21.5%, CCCCOc1ccc(C(=O)NCCc2csc(-c3cccc(F)c3)n2)cc1 21.7%, CCCn1c(=O)c2sccc2n2c(CCCC(=O)NC3CCC(C)CC3)nnc12 (stereo not given) -4.35%, CCCCC/C(C=O)=C\c1ccccc1 0.0029%, CN(C)c1ccc(CNC(=O)c2ccc3nc(Cc4ccccc4)oc3c2)cc1 -21.2%, Cc1cc(C)c(NC(=O)C(=O)NCCc2csc(-c3ccc(F)cc3)n2)c(C)c1 -11.7%, CSc1ccc(CCNC(=O)c2csc3c2CCCCC3)cc1 -20.2%, O=C(O)CCn1ccc2cc(S(=O)(=O)N3CCCCCC3)ccc21 -17.4%, Cc1ccc(C(=O)c2c(N)c(C(=O)Nc3cccc(C(F)(F)F)c3)c3ccccn23)cc1 -2.45%, Cc1ccc(-n2c(=O)c3oc4ccccc4c3n(Cc3cccc(F)c3)c2=O)cc1C -20.8%, COc1ccccc1Nc1c2c(nc3ccc(NC(=O)c4ccc(N(C)C)cc4)cc13)CCCC2 -34.9%, Cc1cccn2c(=O)c(C(=O)N3CCN(c4ccccc4)CC3)cnc12 1.15%, COc1cc(Nc2nc(-c3ccc(OC)c(OC)c3)nc3ccccc23)cc(OC)c1 -31.4%, CCCCOc1ccc(C(=O)Nc2cccc(-c3nc4ccccc4o3)c2C)cc1 13.9%, Cc1nc2nc(NCc3ccc(Br)cc3)[nH]n2c(=O)c1Cc1ccccc1 -1.22%, CC(C)c1ccc(NC(=O)c2ccc(=O)n(Cc3ccccc3)c2)cc1 23.7%, CCc1ccc(-n2c(=O)c3ccccc3n(Cc3ccccc3C#N)c2=O)cc1 -9.2%, O=C(c1ccc2c(c1)N(Cc1ccc(Cl)cc1)C(=O)c1ccccc1S2(=O)=O)N1CCOCC1 -11.6%, CCCC(=O)Nc1ccc2oc(-c3ccc(O)c(Br)c3)nc2c1 -6.86%, Fc1ccc(N2CCN(c3ncnc4onc(-c5ccc(Cl)cc5)c34)CC2)cc1 13%, COc1ccc(OC)c(NC(=O)C2=C(C)C(=O)OC23CCN(C(C)C)CC3)c1 28.7%, O=C(CSc1nc2c(oc3ccccc32)c(=O)n1-c1ccccc1)Nc1ccc(F)c(Cl)c1 3.24%, COc1cccc(C2C(C(N)=O)=C(C)Nc3ncnn32)c1 (stereo not given) -3.38%, Cc1ccc(N(CC2=NCCN2)c2cccc(O)c2)cc1 -0.276% and -9.9%, CCOC(=O)c1c(NC(C)=O)c2c3c(sc2n1Cc1cc(C)ccc1C)CCCC3 1.59%, CCOc1ccccc1NC(=O)Cn1c(=O)n(Cc2ccco2)c(=O)c2sc3ccccc3c21 -4.96%, COc1cccc(-n2c(=O)c3c(C)c(C)sc3n(Cc3ccccc3C#N)c2=O)c1 -14.5%, CCOC(=O)c1ccccc1NC(=O)c1c(C)oc2ncnc(N3CCOCC3)c12 -12.1%, COc1ccc(-c2nc3sc(CCNC(=O)C(=O)Nc4ccccc4C#N)c(C)n3n2)cc1 -10.5%, CCOc1ccc(CNC(=O)c2cc3ccccn3n2)cc1 2.45%, COCCCNC(=O)c1ccc(Cn2c(=O)c3ccccc3n(Cc3ccc(Cl)cc3)c2=O)cc1 -2.23%, Cc1cccc(-n2c(SCC(=O)Nc3ccc(C)c(C)c3)nc3n[nH]c(C)c3c2=N)c1 -2.94%, Cc1ccc(C(=O)N(Cc2ccco2)c2ccccn2)cc1 -1.8%, COc1cccc(-c2nn(C)c3sc(C(=O)NCc4ccc(OC)cc4OC)cc23)c1 -5.17%, COc1ccc(CC(=O)NCC(c2cccs2)S(=O)(=O)c2ccc(F)cc2)cc1 (stereo not given) 14.3%, Cc1ccc(CNC(=O)c2c(Nc3ccccc3C)sc(C(=O)c3ccc(F)cc3)c2N)cc1 -62.3%, O=C(CCn1c(=O)c2ccccc2n(CC(=O)Nc2ccc(F)cc2)c1=O)NCCc1ccccc1 15.6%, COc1ccc(CCNC(=O)c2ccc(Cn3c(SCc4ccccc4)nc4cccnc43)cc2)cc1 9.33%, CC(C)c1cc(-c2nc(-c3ccc(Cl)cc3)no2)n[nH]1 29.7%, CCc1cnc2c(c1SC(C(C)=O)C(=O)N(C)C)c(=O)n(C)c(=O)n2C (stereo not given) 5.55%, CCOc1ccccc1NC(=O)C1=C(C)Nc2ncnn2C1c1ccco1 (stereo not given) 27.2%, COc1cc(NC(=O)c2nn(C)c3c2COc2ccccc2-3)cc(OC)c1OC -0.897%, Cc1ccc(CNC(=O)c2c(Nc3c(C)cccc3C)sc(C(=O)c3ccccc3)c2N)cc1 -43.7%, CCOc1ccc(C2C(C(N)=O)=C(C)Nc3nc(SCc4ccccc4F)nn32)cc1 (stereo not given) 4.87%, COc1ccccc1C(=O)Nc1ccc(C(=O)OCc2cc(=O)n3c4c(sc3n2)CCCC4)cc1 -9.64%, CC(C)c1ccc(NC(=O)c2ccc(CN3CC(=O)N4CCCCC4C3=O)cc2)cc1 (stereo not given) -11%, Cc1cccc(NC(=O)Cn2c(=O)n(Cc3ccccc3)c(=O)c3oc4ccccc4c32)c1C -9.9%, CCc1ccc(C2CC(=O)Nc3c2c(=O)nc2c(C)cccn32)cc1 (stereo not given) 7.9%, COc1ccccc1NC(=O)c1cnn(-c2ccccc2)c1-n1cccc1 -17.7%, COc1ccccc1CNC(=O)c1cc(S(=O)(=O)N2CCCC(C)C2)cn1C (stereo not given) 17.7%, CCCCN(C)CCCNC(=O)c1cn(CC)c2ccc(S(=O)(=O)N3CCc4ccccc4C3)cc2c1=O 7.95%, COc1ccc(NC(=O)Nc2cc(C(=O)NCc3ccc(C)cc3)ccc2N2CCCC2)cc1 -19.3%, Cc1ccc(-n2nc(C)c3c(C(F)(F)F)cc(-c4cccnc4)nc32)cc1C -13.9%, Cc1ccc2oc(-c3ccc(NC(=O)c4oc5ccc(Cl)cc5c4C)cc3)nc2c1 1.06%, CCc1ccc(NC(=O)CC2C(=O)N(c3ccc(F)cc3)C(=O)N2Cc2ccc(F)cc2)cc1 (stereo not given) -18.1%, O=C(c1cnn(-c2ccc(F)cc2)c1-n1cccc1)N1CCN(c2ccccc2)CC1 8.09%, Cc1cccc(NC(=O)Cn2c(SCC(=O)NCc3ccccc3)nc3ccccc32)c1C -2.76%, CCOc1ccc(-c2cn3nc(CC(C)C)sc3n2)cc1 24.7%, O=C(NCCSCc1ccccc1)C1CCN(S(=O)(=O)Cc2ccccc2)CC1 33.5%, Cc1ccc(NC(=O)c2ccc(C)c(S(=O)(=O)N3CCCCCC3)c2)cc1 39%, COc1ccc(C)cc1NS(=O)(=O)c1ccc2oc(=O)c3ncn(C)c3c2c1 -3.36%, CCN(CC)c1ccc(C2C(C(N)=O)=C(C)Nc3nc(SCc4ccccc4Cl)nn32)cc1 (stereo not given) -5.72%, CCOC(=O)c1ccc(N=C2SC(C(=O)Nc3ccccc3)CC(=O)N2C)cc1 (stereo not given) 41%, COc1ccc(CNC(=O)C2(c3cccs3)CCOCC2)cc1 -1.77%, Cc1ccccc1-c1nc(CN2CCC(C(=O)NC(C)C)CC2)c(C)o1 -2.31%, CCCCc1nn2c(=O)cc(COC(=O)CNC(=O)COc3ccc(C)cc3)nc2s1 14%, CCN(CC)S(=O)(=O)c1cccc(C(=O)Nc2ccccc2C(=O)Nc2ccc(OC)cc2)c1 -14.2%, CCOC(=O)C1=C(CN2CCN(c3ccc(C)cc3C)CC2)NC(=O)NC1c1ccc(OC)cc1 (stereo not given) -36.4%, COc1ccc(N2CCN(CC(O)COc3c(OC)cccc3OC)CC2)cc1 (stereo not given) 6.36%, CCOc1ccc(NC(=O)c2c(NCc3cccs3)sc3c2CCC(C)C3)cc1 (stereo not given) -9.32%, CC[n+]1c(/C=C/C=C2/N(C)c3ccccc3C2(C)C)sc2ccccc21 9.86%, CCc1ccc(CCOc2ccc(CC3SC(=O)NC3=O)cc2)nc1 (stereo not given) 27.5%, COc1ccccc1N(CC(=O)Nc1ccccc1C(F)(F)F)S(=O)(=O)c1ccc(C)cc1 -23.8%, Cc1ccc(C)c(N2CCN(C(=O)Cn3nc(C)c4sc5ccccc5c4c3=O)CC2)c1 -8.71%, COc1ccccc1NS(=O)(=O)c1cn(C)c(C)n1 -8.49%, COc1ccc(N2CC(NC(=O)COc3cccc(C)c3)CC2=O)cc1OC (stereo not given) 7.14%, Cc1oc2ccc(O)c(CN3CCCCCC3)c2c1C(=O)Nc1cccc(C(F)(F)F)c1 -3.91%, Cc1c(C(C)C)c(=O)n(-c2ccccc2)n1C -0.0154%, CCC(O)c1nc2ccccc2n1Cc1cc(C)ccc1C (stereo not given) -6.34%, COc1ccc(OC)c(NC(=O)C2CCN(S(=O)(=O)c3ccc4c(c3)CC(C)N4C(C)=O)CC2)c1 (stereo not given) 28.4%, CC(C)(C)c1ccc(/C=C/C(=O)Nc2ccc3c(c2)OCCO3)cc1 4.94%

activation, active:
CCCCC(CC)CNC(=O)CCCCCn1c(=O)[nH]c2ccsc2c1=O (stereo not given) 79.9%
